From publication doi:10.1101/2025.10.31.685692
Where two headings read alike, the source gives them in different places. These are yes or no findings as the source states them, for the method shown. In cells and extracts the contact can be indirect. Some entries that bind do so weakly or less than the wild type. Sequences can lack the tags named with a protein.

By UniProt entry, the sequences of proteins in these tests, tags left out.
UniProt P55200: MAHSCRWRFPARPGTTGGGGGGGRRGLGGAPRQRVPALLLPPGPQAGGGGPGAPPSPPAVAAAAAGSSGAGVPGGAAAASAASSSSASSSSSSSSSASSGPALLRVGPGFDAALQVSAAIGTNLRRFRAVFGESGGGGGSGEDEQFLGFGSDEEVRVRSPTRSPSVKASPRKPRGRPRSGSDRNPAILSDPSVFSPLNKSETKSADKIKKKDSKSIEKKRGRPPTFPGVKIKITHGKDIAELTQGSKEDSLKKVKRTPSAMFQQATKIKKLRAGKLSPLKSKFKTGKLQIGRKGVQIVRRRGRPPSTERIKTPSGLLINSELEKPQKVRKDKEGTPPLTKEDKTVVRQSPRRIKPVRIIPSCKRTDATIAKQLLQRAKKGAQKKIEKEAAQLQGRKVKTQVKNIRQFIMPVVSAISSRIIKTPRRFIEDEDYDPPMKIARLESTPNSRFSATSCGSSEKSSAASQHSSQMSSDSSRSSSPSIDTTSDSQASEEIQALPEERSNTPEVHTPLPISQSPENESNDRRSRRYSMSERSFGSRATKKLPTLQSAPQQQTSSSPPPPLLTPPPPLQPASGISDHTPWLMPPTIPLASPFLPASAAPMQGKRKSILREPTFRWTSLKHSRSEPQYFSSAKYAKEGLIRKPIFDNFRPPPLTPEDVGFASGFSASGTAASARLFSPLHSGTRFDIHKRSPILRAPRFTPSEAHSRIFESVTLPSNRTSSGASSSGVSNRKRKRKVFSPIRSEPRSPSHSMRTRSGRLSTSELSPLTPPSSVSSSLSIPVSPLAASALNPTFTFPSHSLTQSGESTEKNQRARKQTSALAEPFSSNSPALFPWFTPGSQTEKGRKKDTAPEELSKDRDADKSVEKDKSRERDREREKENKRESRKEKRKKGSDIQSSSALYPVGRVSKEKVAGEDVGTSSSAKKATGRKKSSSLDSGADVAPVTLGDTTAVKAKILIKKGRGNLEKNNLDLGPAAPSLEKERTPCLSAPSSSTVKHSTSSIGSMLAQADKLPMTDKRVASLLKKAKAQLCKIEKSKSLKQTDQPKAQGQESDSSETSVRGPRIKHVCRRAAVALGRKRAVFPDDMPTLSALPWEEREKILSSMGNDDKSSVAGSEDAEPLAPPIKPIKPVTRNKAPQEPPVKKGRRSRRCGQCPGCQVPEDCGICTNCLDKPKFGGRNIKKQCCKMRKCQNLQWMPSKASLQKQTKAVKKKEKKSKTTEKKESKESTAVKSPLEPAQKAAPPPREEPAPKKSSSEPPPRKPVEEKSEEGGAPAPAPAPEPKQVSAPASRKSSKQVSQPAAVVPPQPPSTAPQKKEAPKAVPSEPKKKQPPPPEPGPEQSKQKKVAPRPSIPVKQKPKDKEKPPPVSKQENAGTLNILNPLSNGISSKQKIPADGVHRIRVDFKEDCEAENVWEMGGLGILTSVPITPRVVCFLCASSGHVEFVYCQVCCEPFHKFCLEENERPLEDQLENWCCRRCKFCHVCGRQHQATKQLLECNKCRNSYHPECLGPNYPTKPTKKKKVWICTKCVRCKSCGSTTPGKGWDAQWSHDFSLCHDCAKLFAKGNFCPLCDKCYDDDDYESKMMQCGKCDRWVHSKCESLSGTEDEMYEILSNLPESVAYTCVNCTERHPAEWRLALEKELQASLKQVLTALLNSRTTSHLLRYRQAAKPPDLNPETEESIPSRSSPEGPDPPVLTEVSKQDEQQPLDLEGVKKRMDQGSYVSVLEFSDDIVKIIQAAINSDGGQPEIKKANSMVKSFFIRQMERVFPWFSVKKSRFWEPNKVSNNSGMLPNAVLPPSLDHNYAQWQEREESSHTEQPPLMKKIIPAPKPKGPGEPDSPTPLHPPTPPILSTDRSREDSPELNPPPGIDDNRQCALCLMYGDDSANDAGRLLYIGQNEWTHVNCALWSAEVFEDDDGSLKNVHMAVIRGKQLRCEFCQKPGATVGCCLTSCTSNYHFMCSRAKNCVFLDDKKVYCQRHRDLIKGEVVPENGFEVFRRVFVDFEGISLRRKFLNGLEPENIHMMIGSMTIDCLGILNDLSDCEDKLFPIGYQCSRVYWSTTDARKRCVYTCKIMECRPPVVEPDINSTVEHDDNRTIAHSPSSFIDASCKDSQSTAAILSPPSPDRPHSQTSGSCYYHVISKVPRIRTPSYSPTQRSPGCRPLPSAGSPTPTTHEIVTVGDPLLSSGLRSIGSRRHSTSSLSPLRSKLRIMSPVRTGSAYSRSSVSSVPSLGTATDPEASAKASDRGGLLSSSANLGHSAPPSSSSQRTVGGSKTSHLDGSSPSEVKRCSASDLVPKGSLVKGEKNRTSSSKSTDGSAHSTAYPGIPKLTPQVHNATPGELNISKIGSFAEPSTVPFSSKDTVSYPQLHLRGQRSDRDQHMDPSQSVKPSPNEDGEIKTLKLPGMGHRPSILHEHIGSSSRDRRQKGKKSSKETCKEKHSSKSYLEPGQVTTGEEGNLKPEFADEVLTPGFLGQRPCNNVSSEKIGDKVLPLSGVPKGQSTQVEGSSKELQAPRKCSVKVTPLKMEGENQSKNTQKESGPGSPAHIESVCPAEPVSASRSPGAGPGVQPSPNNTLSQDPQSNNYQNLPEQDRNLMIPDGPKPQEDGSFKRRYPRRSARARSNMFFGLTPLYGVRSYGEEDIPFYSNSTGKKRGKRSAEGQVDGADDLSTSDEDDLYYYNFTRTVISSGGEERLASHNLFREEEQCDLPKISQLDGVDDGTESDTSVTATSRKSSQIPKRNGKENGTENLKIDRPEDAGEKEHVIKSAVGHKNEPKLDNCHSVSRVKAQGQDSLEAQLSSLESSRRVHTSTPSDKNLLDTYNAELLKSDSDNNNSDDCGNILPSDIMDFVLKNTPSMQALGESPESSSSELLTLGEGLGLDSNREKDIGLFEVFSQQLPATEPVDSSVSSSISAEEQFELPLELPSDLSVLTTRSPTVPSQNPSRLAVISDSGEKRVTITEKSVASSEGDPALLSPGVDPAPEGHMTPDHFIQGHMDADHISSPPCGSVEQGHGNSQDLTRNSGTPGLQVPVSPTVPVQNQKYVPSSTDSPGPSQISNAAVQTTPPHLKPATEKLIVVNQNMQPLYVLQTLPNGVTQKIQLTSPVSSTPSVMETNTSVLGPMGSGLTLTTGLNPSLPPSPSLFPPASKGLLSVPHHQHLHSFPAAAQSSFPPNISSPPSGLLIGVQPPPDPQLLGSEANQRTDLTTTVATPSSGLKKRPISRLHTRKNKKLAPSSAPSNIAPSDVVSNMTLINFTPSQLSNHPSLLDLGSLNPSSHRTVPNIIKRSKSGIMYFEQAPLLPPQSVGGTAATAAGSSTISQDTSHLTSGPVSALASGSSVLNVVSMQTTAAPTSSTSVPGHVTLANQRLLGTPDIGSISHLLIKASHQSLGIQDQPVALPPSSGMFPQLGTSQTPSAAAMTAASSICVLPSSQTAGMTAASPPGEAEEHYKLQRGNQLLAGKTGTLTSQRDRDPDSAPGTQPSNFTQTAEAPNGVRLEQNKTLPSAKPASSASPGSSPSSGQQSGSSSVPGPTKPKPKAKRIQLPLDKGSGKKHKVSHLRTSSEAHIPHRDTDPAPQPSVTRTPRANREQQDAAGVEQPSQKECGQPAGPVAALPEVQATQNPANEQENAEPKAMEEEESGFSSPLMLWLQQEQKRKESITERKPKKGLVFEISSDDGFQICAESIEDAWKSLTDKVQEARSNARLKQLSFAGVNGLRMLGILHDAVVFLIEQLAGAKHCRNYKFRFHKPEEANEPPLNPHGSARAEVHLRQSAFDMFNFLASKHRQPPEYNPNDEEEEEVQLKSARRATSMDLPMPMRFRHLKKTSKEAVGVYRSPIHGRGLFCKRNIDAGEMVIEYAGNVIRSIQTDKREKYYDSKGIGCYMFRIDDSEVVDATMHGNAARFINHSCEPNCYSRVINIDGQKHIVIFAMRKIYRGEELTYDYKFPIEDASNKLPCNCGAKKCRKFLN
UniProt Q15291: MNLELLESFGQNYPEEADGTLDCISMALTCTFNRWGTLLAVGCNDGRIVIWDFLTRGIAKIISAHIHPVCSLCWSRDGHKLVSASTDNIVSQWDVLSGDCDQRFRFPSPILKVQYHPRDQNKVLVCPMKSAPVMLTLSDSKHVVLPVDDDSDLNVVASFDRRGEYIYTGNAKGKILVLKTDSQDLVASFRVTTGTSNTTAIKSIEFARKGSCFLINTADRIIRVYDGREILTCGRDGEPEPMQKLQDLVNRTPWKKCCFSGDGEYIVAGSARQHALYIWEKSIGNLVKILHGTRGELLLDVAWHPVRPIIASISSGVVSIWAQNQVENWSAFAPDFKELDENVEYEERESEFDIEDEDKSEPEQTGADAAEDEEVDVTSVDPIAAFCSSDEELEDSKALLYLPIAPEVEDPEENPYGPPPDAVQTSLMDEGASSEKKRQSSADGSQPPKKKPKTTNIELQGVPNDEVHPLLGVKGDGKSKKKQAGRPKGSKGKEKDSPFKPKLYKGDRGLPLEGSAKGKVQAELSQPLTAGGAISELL
UniProt P20226: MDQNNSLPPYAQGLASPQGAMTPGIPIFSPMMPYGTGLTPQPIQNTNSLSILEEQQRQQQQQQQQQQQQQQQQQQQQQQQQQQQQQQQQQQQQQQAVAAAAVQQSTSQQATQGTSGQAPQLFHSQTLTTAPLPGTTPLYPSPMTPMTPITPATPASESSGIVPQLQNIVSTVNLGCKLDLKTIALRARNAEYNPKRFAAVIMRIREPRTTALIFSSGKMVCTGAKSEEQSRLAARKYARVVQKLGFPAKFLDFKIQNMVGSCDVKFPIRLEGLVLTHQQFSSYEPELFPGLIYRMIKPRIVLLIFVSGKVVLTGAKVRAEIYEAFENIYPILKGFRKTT

T1: FLAG-HA-tagged ZMYND11, wild type, expressed in HEK293T cells (UniProt Q15326)
T1 sequence: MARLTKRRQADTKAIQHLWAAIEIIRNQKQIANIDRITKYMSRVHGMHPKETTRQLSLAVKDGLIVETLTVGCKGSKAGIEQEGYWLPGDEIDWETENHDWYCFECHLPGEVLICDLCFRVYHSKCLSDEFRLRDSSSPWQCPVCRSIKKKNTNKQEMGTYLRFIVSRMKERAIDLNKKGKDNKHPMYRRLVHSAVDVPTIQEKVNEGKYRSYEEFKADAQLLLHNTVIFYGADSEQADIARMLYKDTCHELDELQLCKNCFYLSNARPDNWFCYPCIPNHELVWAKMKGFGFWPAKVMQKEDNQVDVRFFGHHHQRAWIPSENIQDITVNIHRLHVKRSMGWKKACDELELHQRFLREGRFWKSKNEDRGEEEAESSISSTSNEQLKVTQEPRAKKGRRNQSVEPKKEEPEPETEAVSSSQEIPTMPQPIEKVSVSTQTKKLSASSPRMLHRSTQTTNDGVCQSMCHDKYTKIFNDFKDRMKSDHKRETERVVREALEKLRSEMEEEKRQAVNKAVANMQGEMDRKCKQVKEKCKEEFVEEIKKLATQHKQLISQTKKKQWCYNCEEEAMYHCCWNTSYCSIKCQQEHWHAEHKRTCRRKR

T2: FLAG-HA-tagged ZMYND11 F291A+W294A (UniProt Q15326)
T2 sequence: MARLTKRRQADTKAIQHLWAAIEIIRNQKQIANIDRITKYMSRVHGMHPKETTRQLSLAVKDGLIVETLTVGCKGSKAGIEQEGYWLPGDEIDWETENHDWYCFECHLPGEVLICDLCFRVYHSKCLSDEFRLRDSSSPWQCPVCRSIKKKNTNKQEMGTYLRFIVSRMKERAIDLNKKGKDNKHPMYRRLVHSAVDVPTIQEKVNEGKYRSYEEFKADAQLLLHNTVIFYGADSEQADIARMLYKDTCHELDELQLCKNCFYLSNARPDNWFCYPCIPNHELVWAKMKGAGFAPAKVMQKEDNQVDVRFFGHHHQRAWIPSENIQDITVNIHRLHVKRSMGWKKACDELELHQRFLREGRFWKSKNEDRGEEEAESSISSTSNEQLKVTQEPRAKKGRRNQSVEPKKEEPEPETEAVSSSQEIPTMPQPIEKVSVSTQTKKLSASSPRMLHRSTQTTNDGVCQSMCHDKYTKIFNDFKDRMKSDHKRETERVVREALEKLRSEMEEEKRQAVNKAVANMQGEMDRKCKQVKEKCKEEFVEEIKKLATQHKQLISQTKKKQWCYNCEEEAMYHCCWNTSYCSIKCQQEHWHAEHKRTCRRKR

T3: FLAG-HA-tagged ZMYND11 (endogenous, Zmynd11-FH knock-in mouse) (mouse (endogenous in brain tissue)) (UniProt Q8R5C8)
T3 sequence: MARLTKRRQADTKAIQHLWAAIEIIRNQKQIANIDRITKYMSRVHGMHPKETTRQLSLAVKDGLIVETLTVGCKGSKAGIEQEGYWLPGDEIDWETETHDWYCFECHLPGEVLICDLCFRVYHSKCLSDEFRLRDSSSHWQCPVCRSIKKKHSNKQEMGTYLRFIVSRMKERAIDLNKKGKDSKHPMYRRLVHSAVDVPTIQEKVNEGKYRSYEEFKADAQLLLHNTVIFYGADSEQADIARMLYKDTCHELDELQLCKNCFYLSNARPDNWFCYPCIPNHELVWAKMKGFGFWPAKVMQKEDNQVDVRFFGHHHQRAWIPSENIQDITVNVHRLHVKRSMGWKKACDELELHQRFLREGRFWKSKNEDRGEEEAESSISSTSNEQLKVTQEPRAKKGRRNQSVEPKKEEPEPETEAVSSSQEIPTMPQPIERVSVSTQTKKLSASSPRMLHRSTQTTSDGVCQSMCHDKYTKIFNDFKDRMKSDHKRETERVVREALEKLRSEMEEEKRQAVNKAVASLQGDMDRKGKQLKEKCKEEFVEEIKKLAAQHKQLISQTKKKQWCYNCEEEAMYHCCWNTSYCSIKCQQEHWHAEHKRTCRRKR


Columns and labels:
[1] = biological target: T1, FLAG-HA-tagged ZMYND11, wild type, expressed in HEK293T cells; assay: co-IP; FLAG-HA-tagged ZMYND11 constructs expressed in HEK293T; Benzonase-treated nuclear lysates, 250 mM NaCl; anti-FLAG immunoprecipitation; western blot of endogenous partners; also with ethidium bromide (interactions with MLL1 complex members reduced)
[2] = biological target: T2, FLAG-HA-tagged ZMYND11 F291A+W294A; assay: as above
[3] = biological target: T3, FLAG-HA-tagged ZMYND11 (endogenous, Zmynd11-FH knock-in mouse) (mouse (endogenous in brain tissue)); assay: co-IP; anti-FLAG immunoprecipitation from nuclear lysates of brain tissue of Zmynd11^FH/FH and wild-type littermates; western blot
[4] = biological target: T1, FLAG-HA-tagged ZMYND11, wild type, expressed in HEK293T cells; assay: co-IP; FLAG-HA-tagged ZMYND11 constructs expressed in HEK293T; Benzonase-treated nuclear lysates, 250 mM NaCl; anti-FLAG immunoprecipitation; western blot of endogenous partners; also with ethidium bromide (interactions with MLL1 complex members reduced); remark: listed apart in the source

Molecule | binding [1] | other results
KMT2A (MLL1), endogenous in HEK293T cells (from UniProt Q03164 1-3969) | binds | binding [2]: binds
KMT2A (MLL1), mouse brain (from UniProt P55200 1-3966) | – | binding [3]: binds
KMT2B, endogenous in HEK293T cells (from UniProt Q9UMN6 1-2715) | binds weakly | –
RBBP5, endogenous in HEK293T cells (from UniProt Q15291 1-538) | binds | –
TBP, endogenous in HEK293T cells (from UniProt P20226 1-339) | no binding | –
MENIN, endogenous in HEK293T cells (protein, UniProt O00255 1-610) MGLKAAQKTLFPLRSIDDVVRLFAAELGREEPDLVLLSLVLGFVEHFLAVNRVIPTNVPELTFQPSPAPDPPGGLTYFPVADLSIIAALYARFTAQIRGAVDLSLYPREGGVSSRELVKKVSDVIWNSLSRSYFKDRAHIQSLFSFITGTKLDSSGVAFAVVGACQALGLRDVHLALSEDHAWVVFGPNGEQTAEVTWHGKGNEDRRGQTVNAGVAERSWLYLKGSYMRCDRKMEVAFMVCAINPSIDLHTDSLELLQLQQKLLWLLYDLGHLERYPMALGNLADLEELEPTPGRPDPLTLYHKGIASAKTYYRDEHIYPYMYLAGYHCRNRNVREALQAWADTATVIQDYNYCREDEEIYKEFFEVANDVIPNLLKEAASLLEAGEERPGEQSQGTQSQGSALQDPECFAHLLRFYDGICKWEEGSPTPVLHVGWATFLVQSLGRFEGQVRQKVRIVSREAEAAEAEEPWGEEAREGRRRGPRRESKPEEPPPPKKPALDKGLGTGQGAVSGPPRKPPGTVAGTARGPEGGSTAQVPAPTASPPPEGPVLTFQSEKMKGMKELLVATKINSSAIKLQLTAQSQVQMKKQKVSTPSDYTLSFLKRQRKGL | – | binding [4]: binds
